Experimental data as given in the supplement of paper PMC9151546.
Many values rest on one well or one pass, so single values are uncertain.

What was measured:
CHO-K1 [1] = test: micronucleus frequency (% of nucleated events); higher = more micronuclei (genotoxic)
CHO-K1 [2] = test: relative survival (nuclei to bead ratio vs DMSO control) (% of vehicle control); higher = more surviving cells
Description: (§1)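 Flow-cytometric in vitro micronucleus assay (Litron MicroFlow) in CHO-K1 cells in 96-well plates, 19 concentrations (4.5-200 µM, n=1 per concentration). Without S9, cells were exposed for 24 h and sampled at 48 h. With Aroclor 1254-induced rat liver S9, cells were exposed for 3-4 h and sampled at 27-28 h. Read-outs are %MN and %hypodiploid nuclei relative to nucleated events, and relative survival as the nuclei-to-bead ratio versus the 1% DMSO vehicle control (x100).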

CHO-K1 [3] = test: hypodiploid nuclei frequency (% of nucleated events); higher = more hypodiploid events (aneugenic)
Description: as §1
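For hypodiploid nuclei frequency (% of nucleated events) in this document: hypodiploid nuclei gated on a flow cytometer with 488 nm excitation after SYTOX Green staining, cultures at 37 °C, positive controls vinblastine without S9 and cyclophosphamide with S9.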
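For micronucleus frequency (% of nucleated events) in this document: cells lysed with nuclei stained by SYTOX Green, then micronucleus-gated events counted against nucleated events by flow cytometry with 488 nm excitation.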
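For relative survival (nuclei to bead ratio vs DMSO control) in this document: Lysed-cell nuclei stained with SYTOX Green and counted against counting beads by flow cytometry at 488 nm excitation, with vinblastine (no S9) and cyclophosphamide (plus S9) as positive controls.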

C=CCOC(=O)c1ccccc1C(=O)OCC=C [Diallyl phthalate]
Details | hypodiploid nuclei frequency, CHO-K1 [3] [%] | micronucleus frequency, CHO-K1 [1] [%] | relative survival, CHO-K1 [2]
concentration: 4.5 (µM), S9 metabolic activation: with S9, exposure time: 3-4 hours | 0.24 | 0.96 | 100
concentration: 4.5 (µM), S9 metabolic activation: without S9, exposure time: 24 hours | 0.42 | 1.2 | 105
concentration: 5.63 (µM), S9 metabolic activation: with S9, exposure time: 3-4 hours | 0.12 | 1.04 | 89.8
concentration: 5.63 (µM), S9 metabolic activation: without S9, exposure time: 24 hours | 0.72 | 1.28 | 110
concentration: 7.04 (µM), S9 metabolic activation: with S9, exposure time: 3-4 hours | 0.16 | 0.94 | 89.5
concentration: 7.04 (µM), S9 metabolic activation: without S9, exposure time: 24 hours | 0.56 | 1.06 | 116
concentration: 8.8 (µM), S9 metabolic activation: with S9, exposure time: 3-4 hours | 0.12 | 1.06 | 105
concentration: 8.8 (µM), S9 metabolic activation: without S9, exposure time: 24 hours | 0.58 | 1.08 | 112
concentration: 11 (µM), S9 metabolic activation: with S9, exposure time: 3-4 hours | 0.14 | 1.26 | 86.2
concentration: 11 (µM), S9 metabolic activation: without S9, exposure time: 24 hours | 0.44 | 0.94 | 109
concentration: 13.7 (µM), S9 metabolic activation: with S9, exposure time: 3-4 hours | 0.24 | 1.36 | 81.2
concentration: 13.7 (µM), S9 metabolic activation: without S9, exposure time: 24 hours | 0.64 | 1.38 | 117
concentration: 17.2 (µM), S9 metabolic activation: with S9, exposure time: 3-4 hours | 0.12 | 1.32 | 92.1
concentration: 17.2 (µM), S9 metabolic activation: without S9, exposure time: 24 hours | 0.56 | 1.08 | 102
concentration: 21.5 (µM), S9 metabolic activation: with S9, exposure time: 3-4 hours | 0.14 | 1.08 | 81.9
concentration: 21.5 (µM), S9 metabolic activation: without S9, exposure time: 24 hours | 0.84 | 1.6 | 119
concentration: 26.8 (µM), S9 metabolic activation: with S9, exposure time: 3-4 hours | 0.16 | 1.1 | 102
concentration: 26.8 (µM), S9 metabolic activation: without S9, exposure time: 24 hours | 0.7 | 1.2 | 109
concentration: 33.6 (µM), S9 metabolic activation: with S9, exposure time: 3-4 hours | 0.26 | 1.32 | 115
concentration: 33.6 (µM), S9 metabolic activation: without S9, exposure time: 24 hours | 0.8 | 1.3 | 150
concentration: 41.9 (µM), S9 metabolic activation: with S9, exposure time: 3-4 hours | 0.38 | 1.48 | 104
concentration: 41.9 (µM), S9 metabolic activation: without S9, exposure time: 24 hours | 0.74 | 1.08 | 111
concentration: 52.4 (µM), S9 metabolic activation: with S9, exposure time: 3-4 hours | 0.14 | 1.82 | 99.2
concentration: 52.4 (µM), S9 metabolic activation: without S9, exposure time: 24 hours | 0.6 | 1.4 | 120
concentration: 65.5 (µM), S9 metabolic activation: with S9, exposure time: 3-4 hours | 0.22 | 1.64 | 86.2
concentration: 65.5 (µM), S9 metabolic activation: without S9, exposure time: 24 hours | 0.74 | 1.36 | 135
concentration: 81.9 (µM), S9 metabolic activation: with S9, exposure time: 3-4 hours | 0.1 | 1.22 | 94.9
concentration: 81.9 (µM), S9 metabolic activation: without S9, exposure time: 24 hours | 0.98 | 1.4 | 107
concentration: 102 (µM), S9 metabolic activation: with S9, exposure time: 3-4 hours | 0.32 | 1.22 | 74.8
concentration: 102 (µM), S9 metabolic activation: without S9, exposure time: 24 hours | 0.94 | 1.48 | 93.8
concentration: 128 (µM), S9 metabolic activation: with S9, exposure time: 3-4 hours | 0.28 | 1.52 | 79
concentration: 128 (µM), S9 metabolic activation: without S9, exposure time: 24 hours | 1.04 | 1.34 | 114
concentration: 160 (µM), S9 metabolic activation: with S9, exposure time: 3-4 hours | 0.14 | 1.82 | 64.5
concentration: 160 (µM), S9 metabolic activation: without S9, exposure time: 24 hours | 1.26 | 1.68 | 95.1
concentration: 200 (µM), S9 metabolic activation: with S9, exposure time: 3-4 hours | 0.24 | 2.14 | 55.3
concentration: 200 (µM), S9 metabolic activation: without S9, exposure time: 24 hours | 0.92 | 1.38 | 113
